In the supplement of paper PMC11417369:
The other results are listed elsewhere or left out.

test system: PfSIP2 AP2 domain 1 (GST-tagged); assay: gcPBM binding intensity (ln(normalized median fluorescence intensity)); higher = stronger DNA binding
Procedure, shortened: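 Alexa488 anti-GST antibody, scanned at 488 nm, detected GST-tagged P. falciparum DNA-binding domains that had been expressed in E. coli and incubated for 1 h on an Agilent 4 × 180k array. The array carried primer-extended double-stranded 36-bp intergenic genomic probes and negative controls. Binding intensity is the highest Masliner-normalised natural-log median intensity across replicate spots of either orientation of each probe.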

Sequence	gcPBM binding intensity (ln)
ATATATATATATATATGTACTTATTTATCGTATTAT [XGTACX_site3520]	9.31
ATAAAATATTAATTTTAAATTAATCAATATATATAA [GTGCAC_negctrl_site474]	6.7
AGGCTCAAATCTAGGTGTACCATTATCGTTGTATCT [XGTACX_site4730]	6.67
ATTTTTTCTTATAATGCATGTAGAAAACCGTACAGC [TGCATGCA_site57]	7.06
TATGTGTTTATTTGGTGTACATACTAATAAATATAC [XGTACX_site1682]	7.55
CCTAAATTATATTATGCACACTTAAAAATATATTTA [CACACA_site5861]	8.62
ATTATGTATATAAATTAACACACATATGTGGTTAAT [CACACA_site9028]	6.91
ACGGGTCAATATATGCGTACTTATTTAAATAATTAA [XGTACX_site1518]	7.01
AATAATATAGATTGTACACACAAAATGGGAAAAAAA [CACACA_site1886]	7.07
ATAAATGGAAACAAAAGTACTAAAAAAAAAAAATAA [XGTACX_site1510]	6.85
TATATATGTATGTATTGTACAATTAAAAATATGTAT [XGTACX_site3990]	7.1
AAAAAAAAAAAAGATACACACAAAAATGAATATATA [CACACA_site2099]	6.9
ATATATATATATATATGTACATATATATATAATTTT [XGTACX_site4146]	9.58
ATATATATATATAACTGTACTTATATATACATTTTA [XGTACX_site8605]	9.02
ATCAAGCACCAACACACACACACACCCCCACCCACA [CACACA_site370]	8.18
TAAATAAATAAAAAAACACACATATATATATATATA [CACACA_site4029]	9.74
TTTTATCACATTATTGCACACACATAAAGAAAAAAA [CACACA_site8922]	7.65
TTATTTATTTATAATAGTACAATTTAATGATCTTCT [XGTACX_site4831]	6.68
TGTTTTATACTAAATGAACACACACCCATATATATA [CACACA_site7912]	7.64
CAATATATTTGATTTACACACTTACAATGTATATAA [CACACA_site2994]	7.04
AATAATATATATATATATATAATAAAATATAAATAG [CACACA_negctrl_site1515]	7.31
CCAACATGCCCACGCACACACAAAAAAAGCATGCAT [CACACA_site4217]	7.23
ATATGAAATAATAATAGTACATAAAATAATTTTACT [XGTACX_site6964]	6.83

Sequence	gcPBM binding intensity (ln)
ATAGAAATATATATATGTACATATAGATAAATCTAT [XGTACX_site7833]	6.93
ATAAATACAGATAACACACACATATATATATATATA [CACACA_site5431]	9.28
AAAAATAACGTAAATTGTACATGTAAAATTTTCTAT [XGTACX_site7158]	6.96
TTTTAAGAATAAAATTGTACACATACATGTGTTCGC [XGTACX_site438]	6.72
TTATTTATATATTCATGTACATAACATTTCATTCGA [XGTACX_site4388]	6.93
ATATAAATTTTTTAGAGTACTAAAATAAAATAATAT [XGTACX_site2118]	7.03
AAACAGAAGACATATACACACATACAAAAAAGTGCA [CACACA_site4699]	7.62
TTCTCATTCAAATTAGTGCATTTTTGTTATTACATT	9.69
TGTGTATATATATAATGTACATAAAGATTTATATAT [XGTACX_site5835]	7.14
TTTTCTAAAATGAATTGTACTTGATTATTTAAAAAA [XGTACX_site6097]	6.71
TAAAAAATGAAAAAGCGTACATGTTTTCTTATATTA [XGTACX_site1722]	6.87
ATACTAAAAAGTATCTGTACTTATTTTAAAAATAAA [XGTACX_site4116]	7.08
TAAATAATTAAAATATGTACTGAAATGTAATTATTT [XGTACX_site5894]	6.85
TATTTACTTATATGCACACATAAATGTGAATTATGG [CACACA_site3777]	7.47
TGTATCATAAAAATAACACACGTATTTTTTTTTATT [CACACA_site1050]	6.94
AGTATAAAATAAATGTGTACACAAGAAAATATGTTA [XGTACX_site8381]	7.47
AAAATCACAAGACACACACACACAAAAAAAAAAAAA [CACACA_site6791]	7.02
ATATATATATGTATGTGTCCACAAGGAGATATATAT [XGTACX_site783]	8.4
AAAATATTTTAATGTTGTACATTAATATATTATATA [XGTACX_site2513]	6.92
AGTAAATAATAGATCGCATGTAATAACTAGTAGGAA [TGCATGCA_site948]	7
ACAATTGAAGAAATACGTACATAAAGAAAAACTAGT [XGTACX_site820]	7.37
ATTATAAAGACATATACACACATACGTACATACATA [CACACA_site5893]	7.22
TACATAAATATATGTGTGCACAATTTCGTATATTTA [GTGCAC_site9859]	9.41

Sequence	gcPBM binding intensity (ln)
TGTACATTCGGAGTAAAAAAAAATTTATACAATTAC [CACACA_negctrl_site1451]	6.69
AACAGATAAAAGGGTACACACATATATACCTGTACA [CACACA_site4285]	7.2
TGTATTAAATTTTGAACACACAAAATAAAACATATA [CACACA_site1672]	6.97
TTTCAAAAAAATAGCTATATTTATATTAATGCACGA [TGCATGCA_negctrl_site63]	9.71
TAATAAAAATAAAATTGTACTAATAACATTTCATTA [XGTACX_site3703]	6.68
TATATAACTGTCTTCAGTACACAATAAATAAAAATA [XGTACX_site8856]	6.95
AAAGGTGTATATAATACACACGTGTGATTAAAATTG [CACACA_site8104]	6.81
AACTTTGAGACATAGTGTACTTACACAATCTTAATA [XGTACX_site3712]	6.85
ACATTTTTTTTTTTTTTTCTTTTTCTTTTTCTTTTT [CACACA_negctrl_site1295]	6.98
CATATTTGATACAAGTGTACTTTATTTAAAAATTCT [XGTACX_site8408]	7.12
TCGTATCTATTGAGGGTGCCTCTATAATTGATACAA [GTGCAC_site9636]	8
AACCTAAGCATTCTTCAAATTATATATGTAAAATGA [CACACA_negctrl_site261]	6.87
TAATATAATATATGCACACAAATATGTATTTATGTG [CACACA_site5210]	7.07
GAAAAAATAAAATAAAGTACATAACTATAATAAAAA [XGTACX_site4807]	7.03
CTTACACCCATATATACACACATGTATATTTTATAT [CACACA_site4462]	7.23
TACTCCTCAATATTATGTACATATAATAGTTATAAA [XGTACX_site8551]	7.11
ATATATAAACACTCTTGTACATAATAATGTATATAT [XGTACX_site2451]	7.11
ACGCACGAAATAAATACATGCATATTGTAAAAATTA [TGCATGCA_site310]	7.26
GGGAATATATTCAATTGTACATTCTTATTTTATCCA [XGTACX_site8480]	6.8
TCTTTTTTTTTACATACTTTTTTCCTTTTTTTTTTA [CACACA_negctrl_site1429]	6.86
TATTTAATGCAAAAACGTACATAAATAACATTCACA [XGTACX_site5356]	7.05
TATATATATATTAGTGGTACAAGATTTTTTTCTTTT [XGTACX_site4619]	8.68
TATAAACACCCATATAAACACACATACATACATACA [CACACA_site8791]	8.18

Sequence	gcPBM binding intensity (ln)
TCTTGTAGATATATTTGTACATATATTTATGGGTAT [XGTACX_site1139]	7.24
CTAGACTTTTTACAATGTACATATTTATGTATTATT [XGTACX_site1833]	7.01
TTTTTTCATAAATAATGTACATATATATATATATAT [XGTACX_site3620]	9.46
ATATTATTTATAAGTTGTACGGTATAATATAATATA [XGTACX_site5371]	7.07
AAAAAATATATATTAACACACACACTAATAAAAAAA [CACACA_site8366]	6.96
AAAATTTTTTACTTTACACACATTTTGTATATTTTG [CACACA_site1730]	6.92
GTTCAAAATATGAACACACACATATATATATATATA [CACACA_site2057]	9.37
ATCTACATATATTATTGTACATTGTTAAAAATTTAT [XGTACX_site7769]	7.04
TTTCGTAATATGCGTGTGCACAATGAGTCCATATCT	8.8
TTTTTTTTTTTTTGGGGTACATTTTAATTAATATTA [XGTACX_site4866]	7.11
TAAAATATAATTAGCACACATATATAAAATATATAT [CACACA_site4093]	6.85
ATATATTGTATGTGCTCACACATGTTTCGATATTAT [CACACA_site4336]	6.98
GTTGTTTCTATAAATTGTACTTAAATATAATTATAT [XGTACX_site585]	7.62
GTAAATATGTTTATTAGTACACATATGAAAATAAAT [XGTACX_site5820]	7.22
TAGAAACTATGTAATGCACACCAAAATAAAATTATT [CACACA_site8578]	8.06
TTTTGGATACTTCATTTGTCCTGTTTTTTTTTTTTA [CACACA_negctrl_site399]	6.7
TTTTAAAAAATAAAATATTATTGAAGTAAAATATGA [CACACA_negctrl_site758]	6.98
AAAATATATCAAAACACACTCACATATAATACTTAC [CACACA_site6031]	6.98
TATATACTTATATACTGTACTCATCATCTTTTAAAG [XGTACX_site6099]	6.98
TAATATATCTATAATACACACTATTCTAATCACATA [CACACA_site6731]	6.95
